# Data as given in PubChem BioAssay AID504466 (National Center for Advancing Translational Sciences (NCATS), 2011).
# Out of some 330,000 compounds screened, about 4,200 (1.3%) were called active. Inconclusive results, whose numbers are uncertain, are shown with a selection of clear calls. Calls follow the shape of the dose curve; as a rule, active = well fitted activation curve with a large enough effect; inconclusive = small, poorly fitted or top-dose-only effect; inactive = no such curve, though single readings can be large or run the other way. Where the call is inconclusive, the potency comes from a doubtful curve fit.
# Assay: qHTS screen for small molecules that induce genotoxicity in human embryonic kidney (HEK293T) cells expressing luciferase-tagged ELG1; also: nearly all actives have a fitted effect of over 60% in size; as to activity change, positive = activation: % of control where 0% means no effect
# Conditions: HEK293T ELG1-luciferase reporter, luminescence, 16 h; series mostly up to 46 µM; activity change, positive = activation: at the top concentration
# Procedure, shortened: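 Genotoxicity was scored as increased ELG1-luciferase reporter signal, measured by ONE-Glo luminescence (30 min, room temperature). Compound or vehicle exposure of the HEK293T reporter cells lasted 16 hr at 37°C.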
# Potency is read from the fitted curve at half-maximal effect; tags tell the direction and shape of the fitted curve.
Compound,"activity change, positive = activation",Potency
O=[N+]([O-])c1ccc(Cl)c(CN2CCN(c3ncccn3)CC2)c1,inactive: 2.04%,–
Cc1cc(C(=O)N/N=C/c2ccccc2)c(C)o1,–,"inconclusive: 13 µM [activator, partial curve, poor fit]"
COc1ccc(C2CC(c3cccs3)=NN2C(=O)CSc2nc3c(cnn3-c3ccccc3)c(=O)[nH]2)cc1 (stereo not drawn),inactive: -2.25%,–
CCc1ccc(OCC(=O)O/N=C(\N)c2ccccn2)cc1,–,active: 7.3 µM
Cc1cccc(NC(=S)NC(=O)c2ccc(-c3ccccc3)cc2)n1,–,"inconclusive: 13 µM [activator, partial curve]"
CC(C)=CCC/C(C)=C/CNC(=O)C[C@H]1C[C@H](C(=O)N2CCOCC2)[C@@]2(CCC3CCCC3)c3[nH]c4cc(CCC(=O)N(C)C)ccc4c3CCN2C1=O,inactive: -1.31%,–
O=C(Nc1ccccc1)c1nc[nH]c1C(=O)NCCCCNC(=O)c1[nH]cnc1C(=O)Nc1ccccc1,inactive: -6.41%,–
CN(Cc1ccccc1)S(=O)(=O)c1ccc2c(c1)n(C)c(=O)c(=O)n2C,–,"inconclusive: 32.6 µM [activator, partial curve, poor fit]"
COc1ccc(N2CCN(c3nccs3)CC2)cc1,–,"inconclusive: 16.4 µM [activator, partial curve, poor fit]"
Cc1cc(NC(=O)c2ccc(Cl)cc2Cl)no1,–,"inconclusive: 9.2 µM [activator, partial curve]"
O=C(CCc1nnc(-c2ccsc2)o1)N1CCc2c(Cl)cccc2C1,–,"inconclusive: 23.1 µM [activator, partial curve, poor fit]"
COc1ccc(CN(C)Cc2c(O)ccc3cc(Br)ccc23)cc1OC,inactive: 7.67%,–
O=c1[nH]c(-c2cccnc2)nc2sc(-c3ccccc3)cc12,–,"inconclusive: 23.1 µM [activator, partial curve, poor fit]"
COc1ccc(C(=O)NCc2ccc(-c3nc4ccccc4s3)cc2)cc1OC,–,active: 16.4 µM
O=C(C1CCCN(S(=O)(=O)c2ccccc2)C1)N1CCCCCC1 (stereo not drawn),inactive: 8.8%,–
Cc1ccc(C)n1-c1ccc(C(=O)Nc2ccccc2)cc1,–,"inconclusive: 20.6 µM [activator, partial curve]"
COc1ccc(NC(=O)C2=Cc3ccccc3OC2)cc1,–,active: 0.517 µM
Cn1cc([N+](=O)[O-])c(C(=O)N2CCN(Cc3ccc4c(c3)OCO4)CC2)n1,inactive: 10.4%,–
O=C(c1cc(COc2cccc(C(F)(F)F)c2)on1)N1C[C@H]2CC[C@H]1C2,–,"inconclusive: 10.3 µM [activator, partial curve]"
COc1ccc(N(CC(=O)NCCSc2ccccc2)S(=O)(=O)c2ccccc2)c(OC)c1,inactive: -9.74%,–
O=C(O)CNS(=O)(=O)/C=C/c1ccccc1,–,"inconclusive: 7.3 µM [activator, partial curve, poor fit]"
CCc1ccc(NC(=O)c2[nH]c(C)c(C(C)=O)c2C)cc1,–,"inconclusive: 2.31 µM [activator, partial curve]"
O=C(c1cccs1)N1CCC(c2ccccc2)C1 (stereo not drawn),–,active: 18.4 µM
COc1cc(C(=O)NCc2cccnc2)ccc1OCC(=O)Nc1cccc(C(F)(F)F)c1,–,"inconclusive: 29.1 µM [activator, partial curve, poor fit]"
CCC(=O)Nc1ccc(C(=O)Nc2ccc3c(c2)OCO3)cc1,inactive: 10.7%,–

Compound,"activity change, positive = activation",Potency
CCOC(=O)C1CCN(Cc2c(F)cccc2Cl)CC1,inactive: -3.47%,–
CN(C(=O)c1ccc(Br)o1)C1CCCCC1,–,"inconclusive: 20.6 µM [activator, partial curve, poor fit]"
COc1ccccc1/C=C/C(=O)OCC(=O)N1CCN(S(=O)(=O)c2ccc(C)cc2C)CC1,inactive: -1.75%,–
CCN(CC)S(=O)(=O)c1ccc(N2CCOCC2)c(NC(=O)Cc2ccc(Cl)cc2)c1,inactive: -6.13%,–
COc1cc(OC)cc(C(=O)N=c2sc3ccccc3n2C)c1,–,"inconclusive: 5.8 µM [activator, partial curve, poor fit]"
C=CCSC1=NNC(c2ccc(C(C)(C)C)cc2)=NN1,–,"inconclusive: 20.6 µM [activator, partial curve, poor fit]"
CCOc1cccc(-c2csc(C3COc4ccccc4O3)n2)c1 (stereo not drawn),–,"inconclusive: 8.2 µM [activator, partial curve, poor fit]"
C=CCOC(=O)c1sc(NC(=O)c2ccc(OC)cc2)nc1C,–,"inconclusive: 8.2 µM [activator, partial curve]"
Cc1ccc(NCc2ccccc2O)cc1C,–,"inconclusive: 29.1 µM [activator, single point]"
Cc1ccc(CNC(=O)Cc2noc3ccccc23)cc1,–,"inconclusive: 9.2 µM [activator, partial curve]"
CCS(=O)(=O)N1Cc2ccccc2CC1C(=O)Nc1nc(C)cs1 (stereo not drawn),–,"inconclusive: 20.6 µM [activator, partial curve]"
O=c1oc2ccccc2cc1-c1nc2c(s1)CCCC2,–,"inconclusive: 0.259 µM [activator, full curve]"
O=C(NCCc1nnc2ccc(SCC(=O)N3CCCC3)nn12)c1ccc(F)cc1,inactive: -0.553%,–
Cc1ccc(-c2nc(CS(=O)(=O)CC(=O)N3CCCCCC3)c(C)o2)cc1,–,"inconclusive: 23.1 µM [activator, single point]"
O=C(N/N=C/c1ccc2c(c1)OCO2)c1ccc2c(c1)OCCO2,–,"inconclusive: 10.3 µM [activator, partial curve, poor fit]"
O=C(/C(C=Nc1ccc(Br)cc1)=C(/O)c1ccco1)C(F)(F)F,–,"inconclusive: 6.51 µM [activator, single point]"
Cc1cc(C)c2c(N)c(C(=O)NCC3CCCCC3)sc2n1,–,active: 11.2 µM
COc1cc(NC(=O)c2cccc3c2C(=O)N(Cc2cccnc2)C3)cc(OC)c1OC,inactive: -0.17%,–
CCCOc1cccc(C(=O)Nc2cccnc2)c1,inactive: 14.1%,–
O=C(NC1CCCCC1)c1n[nH]c2c1CC(c1ccccc1)CC2 (stereo not drawn),–,"inconclusive: 10.3 µM [activator, partial curve]"
CC1CCN(c2nc3ccc(C(=O)NCCCN4CCCCC4C)cc3s2)CC1 (stereo not drawn),–,"inconclusive: 0.0164 µM [activator, full curve, poor fit]"
CCOc1nc(NCc2ccco2)nc(Nc2ccccc2F)n1,–,"inconclusive: 20.6 µM [activator, partial curve, poor fit]"
COc1ccc(NC(=O)Nc2ccc(OC)cc2)cc1,–,"inconclusive: 3.26 µM [activator, full curve]"
O=C(/C=C/c1ccc(N2CCCCC2)c([N+](=O)[O-])c1)c1ccc(O)cc1,–,active: 20.6 µM
Nc1cc(S(=O)(=O)Nc2ccc(Cl)cc2)ccc1N1CCOCC1,inactive: 1.72%,–

Compound,"activity change, positive = activation",Potency
Cc1cc(C(=O)CN2C(=O)NC3(CCCCC3)C2=O)c(C)n1Cc1ccco1,–,active: 6.51 µM
O=C1CN(c2nc(-c3cccs3)nc3sc4c(c23)CCCC4)CCN1,–,"inconclusive: 20.6 µM [activator, partial curve, poor fit]"
CC(C)Oc1ccc(C(=O)Nc2nc3ccccc3[nH]2)cc1,–,"inconclusive: 0.103 µM [activator, full curve, poor fit]"
O=C(COC(=O)c1cc2ccccc2o1)c1ccccc1,–,"inconclusive: 23.1 µM [activator, partial curve, poor fit]"
CC1CN(C(=O)/C(C#N)=C2\N=C(NC(=O)c3ccc(F)cc3)c3ccccc32)CC(C)O1 (stereo not drawn),inactive: -6.25%,–
COc1ccc(C(=O)Nc2ccccc2C(N)=O)cc1,–,"inconclusive: 10.3 µM [activator, partial curve]"
CN(C)c1ccc(-c2ccc3c(=O)c4ccccc4n(C)c3c2)cn1,–,active: 16.4 µM
COc1ccc(OC)c(S(=O)(=O)Nc2ccc(-c3ccc4nnc(C)n4n3)cc2)c1,–,"inconclusive: 23.1 µM [activator, single point]"
O=C(N/N=C\c1cc([N+](=O)[O-])ccc1N1CCOCC1)c1ccccn1,inactive: 10.3%,–
Cn1c(CCNC(=O)c2ccccc2)nc2cc(NC(=O)C3CCCCC3)ccc21,–,"inconclusive: 22.4 µM [activator, partial curve, poor fit]"
COC(=O)CS(=O)(=O)c1cc([N+](=O)[O-])ccc1NC(=O)OC,inactive: 2.13%,–
O=C(Nc1nnc(-c2ccccc2)s1)c1ccccc1F,–,"inconclusive: 7.3 µM [activator, partial curve]"
Clc1ccc(-c2ccc(CNCc3ccccn3)o2)cc1,inactive: 4.12%,–
Cc1ccc(OCC(=O)Nc2ccc(C)c(S(=O)(=O)N3CCCCCC3)c2)c([N+](=O)[O-])n1,inactive: -12.5%,–
CCOc1ccc(CNC(=O)C2CCCN(S(=O)(=O)N3CC(C)CC(C)C3)C2)cc1OC (stereo not drawn),inactive: -2.95%,–
O=C(c1ccc(NS(=O)(=O)c2cccc([N+](=O)[O-])c2)cc1)N1CCN(C(=O)c2ccco2)CC1,inactive: 1.14%,–
Cc1ccc(S(=O)(=O)N2CCN(CC(=O)N/N=C/C=C/c3ccccc3)CC2)cc1,inactive: -0.364%,–
O=C(Oc1ccccc1C(=O)Nc1ccccc1)c1ccccc1Br,–,"inconclusive: 16.4 µM [activator, partial curve]"
CCCn1nnnc1SCC(=O)N1CCCc2ccccc21,–,active: 14.6 µM
CC1CCc2c(sc3ncn(CC(=O)N=Nc4c(O)[nH]c5ccccc45)c(=O)c23)C1 (stereo not drawn),inactive: -2.08%,–
COc1cc(/C=C/C(=O)OCC(=O)N(C)CC(=O)Nc2ccc(F)cc2)ccc1OC(F)F,inactive: 0.192%,–
Cc1cccc(N2CC(C(=O)Nc3ccc4c(c3)OCCO4)CC2=O)c1C (stereo not drawn),–,"inconclusive: 9.2 µM [activator, partial curve, poor fit]"
COc1ccc(-c2c(C)nn3c(-c4ccccc4)cc(C)nc23)cc1,inactive: -6.24%,–
